Measured values taken from a collection of fitness landscapes (doi:10.1126/science.1257360).
The other results are listed elsewhere or left out.

B1: PhoQ; a variant is named by its letters at X, in order, P23837 (parent)
chain: MKKLLRLFFPLSLRVRFLLATAAVVLVLSLAYGMVALIGYSVSFDKTTFRLLRGESNLFYTLAKWENNKLHVELPENIDKQSPTMTLIYDENGQLLWAQRDVPWLMKMIQPDWLKSNGFHEIEADVNDTSLLLSGDHSIQQQLQEVREDDDDAEMTHSVAVNVYPATSRMPKLTIVVVDTIPVELKSSYMVWSWFIYVLSANLLLVIPLLWVAAWWSLRPIEALAKEVRELEEHNRELLNPATTRELTSLVRNLNRLLKSERERYDKYRTTLTDLTHSLKTPLXXLQXXLRSLRSEKMSVSDAEPVMLEQISRISQQIGYYLHRASMRGGTLLSRELHPVAPLLDNLTSALNKVYQRKGVNISLDISPEISFVGEQNDFVEVMGNVLDNACKYCLEFVEISARQTDEHLYIVVEDDGPGIPLSKREVIFDRGQRVDTLRPGQGVGLAVAREITEQYEGKIVAGESMLGGARMEVIFGRQHSAPKDE

Variants of: B1
Assay: enrichment ratio after two sorts for PhoP signalling (ratio (wild type AVST 3.29)); higher = more functional
Conditions: with PhoP (E. coli)

Variant	enrichment ratio
YPGA	≤ 0.25
SELR	4.87
DRHW	≤ 0.25
APCM	≤ 0.25
DTYR	≤ 0.25
FWYS	≤ 0.25
TFCV	1.59
WYQR	≤ 0.25
IWLV	≤ 0.25
KCKP	≤ 0.25
AIQG	≤ 0.25
IYER	≤ 0.25
WAHF	≤ 0.25
YLIH	≤ 0.25
MNTW	≤ 0.25
NNYY	≤ 0.25
IFTR	≤ 0.25
SGAA	5.99
QFLQ	≤ 0.25
QTFV	≤ 0.25
PCEI	≤ 0.25
SQNR	≤ 0.25
ETAG	≤ 0.25
FNVY	≤ 0.25

Variant	enrichment ratio
FFPL	≤ 0.25
SLWF	≤ 0.25
HNVY	≤ 0.25
DMCQ	≤ 0.25
FTHE	≤ 0.25
KIHS	≤ 0.25
PCYY	≤ 0.25
VTRM	≤ 0.25
PRAS	≤ 0.25
DISP	≤ 0.25
PFGC	≤ 0.25
ELGT	≤ 0.25
REPG	≤ 0.25
SEKL	≤ 0.25
SEFG	15.8
WENS	≤ 0.25
DGRA	≤ 0.25
TDAS	11.6
QLAG	≤ 0.25
HADN	≤ 0.25
LAAI	≤ 0.25
QGDV	7.87
WIQF	≤ 0.25
TSHY	7.3

Variant	enrichment ratio
GTWP	≤ 0.25
FAHN	≤ 0.25
VPEI	≤ 0.25
AVFT	≤ 0.25
FYFH	≤ 0.25
KLTL	≤ 0.25
RKTI	≤ 0.25
GFKN	≤ 0.25
ECSF	≤ 0.25
DVPD	≤ 0.25
HTYW	≤ 0.25
PQFN	≤ 0.25
AWPH	≤ 0.25
SHAL	0.434
RDVN	≤ 0.25
SMCD	2.56
YRAQ	≤ 0.25
SIFQ	1.13
VPHL	≤ 0.25
HNMT	≤ 0.25
FDFY	≤ 0.25
YFGW	≤ 0.25
SMVG	8.8
VAFA	≤ 0.25

Variant	enrichment ratio
MDCN	≤ 0.25
WPNE	≤ 0.25
LAMK	≤ 0.25
PFHN	0.873
GENR	≤ 0.25
YNER	≤ 0.25
DAQR	≤ 0.25
PIRP	≤ 0.25
YVDF	≤ 0.25
PAMN	≤ 0.25
RYDT	≤ 0.25
ECFW	≤ 0.25
KQKR	≤ 0.25
TNQI	0.317
NILW	≤ 0.25
AVPD	≤ 0.25
FDYM	≤ 0.25
ESIR	≤ 0.25
IFHG	≤ 0.25
TPKR	≤ 0.25
DGLD	≤ 0.25
VQLH	≤ 0.25
RLAP	≤ 0.25
EVDY	≤ 0.25

Variant	enrichment ratio
KWNH	≤ 0.25
SAER	≤ 0.25
NHGK	≤ 0.25
KIKV	≤ 0.25
PGRP	≤ 0.25
QSVN	≤ 0.25
SGCW	≤ 0.25
NERF	≤ 0.25
TQKP	≤ 0.25
YRKR	≤ 0.25
QHAP	≤ 0.25
NGDH	≤ 0.25
EAYR	≤ 0.25
RAPY	≤ 0.25
LIQC	≤ 0.25
MFSA	≤ 0.25
GFGG	≤ 0.25
MQRY	≤ 0.25
GLIK	≤ 0.25
WQGL	≤ 0.25
AWFY	≤ 0.25
ADPR	≤ 0.25
SEIP	≤ 0.25
IQTA	≤ 0.25

Variant	enrichment ratio
IMEY	≤ 0.25
PYTY	≤ 0.25
ANDW	≤ 0.25
EEDS	≤ 0.25
FQGV	≤ 0.25
WPLR	≤ 0.25
PTGT	≤ 0.25
GNHM	≤ 0.25
FTIF	≤ 0.25
DGVQ	≤ 0.25
PLFG	≤ 0.25
LKDT	≤ 0.25
LCYH	≤ 0.25
TFYP	≤ 0.25
QYAC	≤ 0.25
GDWR	≤ 0.25
VSNP	≤ 0.25
KNDA	≤ 0.25
PDST	≤ 0.25
YNIK	≤ 0.25
MQVG	≤ 0.25
ARFQ	≤ 0.25
GNGC	≤ 0.25
HAMN	≤ 0.25

Variant	enrichment ratio
DWTI	≤ 0.25
IYQA	≤ 0.25
FQWE	1.71
RKPP	≤ 0.25
RTHN	≤ 0.25
DFNR	≤ 0.25
NDYH	≤ 0.25
GESR	≤ 0.25
PIHP	≤ 0.25
NCDW	≤ 0.25
MPVI	≤ 0.25
LMDW	≤ 0.25
STMT	16.6
NQSV	0.26
THWV	≤ 0.25
FLDL	≤ 0.25
FCPV	≤ 0.25
ESKL	≤ 0.25
VMCL	≤ 0.25
DMWC	≤ 0.25
VTYV	≤ 0.25
GFHH	≤ 0.25
DVLI	≤ 0.25
QDSS	≤ 0.25

Variant	enrichment ratio
AWVV	≤ 0.25
PCLL	≤ 0.25
LHRL	≤ 0.25
WTTN	≤ 0.25
LIIF	≤ 0.25
MQSC	≤ 0.25
DMLD	≤ 0.25
HEHS	≤ 0.25
KIAF	≤ 0.25
LRGT	≤ 0.25
LTYA	≤ 0.25
IHRE	≤ 0.25
THLF	3.38
KDNW	≤ 0.25
LKDC	≤ 0.25
QIVS	≤ 0.25
AKMR	≤ 0.25
GWDH	≤ 0.25
RICM	≤ 0.25
YGAS	≤ 0.25
HTPN	≤ 0.25
MCSC	≤ 0.25
PTAH	≤ 0.25
RALM	≤ 0.25

Variant	enrichment ratio
IDPV	≤ 0.25
KLEQ	≤ 0.25
PLDK	≤ 0.25
SISP	≤ 0.25
KQTN	≤ 0.25
LIMG	≤ 0.25
APDC	≤ 0.25
PQTP	≤ 0.25
SRNA	≤ 0.25
STGR	≤ 0.25
AYAL	≤ 0.25
VHHL	≤ 0.25
FVMI	1.82
ICDI	≤ 0.25
MTPK	≤ 0.25
SKGM	≤ 0.25
PATD	≤ 0.25
FCKF	≤ 0.25
WHEF	≤ 0.25
PHFW	≤ 0.25
TSVM	3.12
VYEK	≤ 0.25
SINV	≤ 0.25
QMPP	≤ 0.25

Variant	enrichment ratio
KACK	≤ 0.25
EIWR	≤ 0.25
DQND	≤ 0.25
VGFC	≤ 0.25
ISFS	≤ 0.25
LIMA	≤ 0.25
WSCP	≤ 0.25
FMQS	≤ 0.25
YEIF	≤ 0.25
HNRS	0.686
GIPY	≤ 0.25
PGQI	≤ 0.25
IGAK	≤ 0.25
KEMF	≤ 0.25
FKKR	≤ 0.25
REVH	≤ 0.25
RSPN	≤ 0.25
YLLL	0.307
YPTM	≤ 0.25
IQDC	≤ 0.25
TISR	6.92
GHIS	≤ 0.25
SMIA	≤ 0.25
FGPH	≤ 0.25

Variant	enrichment ratio
MKHL	≤ 0.25
SYTG	0.487
ARIH	≤ 0.25
HHTR	≤ 0.25
FGQH	≤ 0.25
AQQL	≤ 0.25
LDIA	≤ 0.25
GWTQ	≤ 0.25
GMSA	≤ 0.25
MKSR	≤ 0.25
FWMK	≤ 0.25
YIWD	≤ 0.25
PFCI	≤ 0.25
PYEN	≤ 0.25
TDWA	≤ 0.25
DKDN	≤ 0.25
MRID	≤ 0.25
VHDI	≤ 0.25
YGLE	0.384
KNFS	≤ 0.25
EGKV	≤ 0.25
SFWC	≤ 0.25
SYYQ	≤ 0.25
LCQP	≤ 0.25

Variant	enrichment ratio
HKVI	≤ 0.25
QSSS	8.71
DQGS	≤ 0.25
NKYR	≤ 0.25
TDYI	≤ 0.25
MNFM	6.56
RHYQ	≤ 0.25
IDSR	≤ 0.25
MTER	≤ 0.25
RLSW	≤ 0.25
KFTM	≤ 0.25
QDSL	≤ 0.25
GCAK	≤ 0.25
YWDC	≤ 0.25
EWAL	≤ 0.25
THIQ	≤ 0.25
VGFK	≤ 0.25
KLQI	≤ 0.25
MYLH	≤ 0.25
KQAL	≤ 0.25
YFHM	≤ 0.25
WTWY	≤ 0.25
ADFM	≤ 0.25
RKTG	≤ 0.25

Variant	enrichment ratio
KESN	≤ 0.25
IKYD	≤ 0.25
SERC	≤ 0.25
WDWT	≤ 0.25
YRHQ	≤ 0.25
ERCG	≤ 0.25
DVKR	≤ 0.25
RFKR	≤ 0.25
ALLP	≤ 0.25
TTHK	≤ 0.25
RTST	≤ 0.25
HWCH	≤ 0.25
HPNR	≤ 0.25
LWGF	≤ 0.25
YWME	≤ 0.25
HAHF	≤ 0.25
DGNN	≤ 0.25
SPEY	≤ 0.25
